Over roughly 33,000 sequences, “E-score (-0.5 to 0.5)” has its median near -0.017; the highest 2% begin near 0.3. The list shows a part of the results.
biological target: T1, Sut1 (UniProt P53032); assay: PBM E-score (8-mer binding enrichment) (E-score (-0.5 to 0.5)); higher = stronger / more preferred TF binding; most listed sequences are background and not binding sites; conditions: protein concentration: 200 nM; construct: GST-full length
T1 sequence: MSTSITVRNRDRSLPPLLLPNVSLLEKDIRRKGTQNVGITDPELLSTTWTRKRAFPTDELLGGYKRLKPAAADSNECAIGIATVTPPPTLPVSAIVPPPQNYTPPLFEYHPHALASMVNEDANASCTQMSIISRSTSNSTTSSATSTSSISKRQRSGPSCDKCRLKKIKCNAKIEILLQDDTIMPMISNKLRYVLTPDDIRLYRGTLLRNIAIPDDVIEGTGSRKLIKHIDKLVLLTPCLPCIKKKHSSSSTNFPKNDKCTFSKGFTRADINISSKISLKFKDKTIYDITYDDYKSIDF
Procedure, shortened: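 Full-length yeast transcription factors or their DNA-binding domains, GST-tagged and expressed with PURExpress, were applied at about 100-200 nM to universal all-10-mer Agilent arrays. These arrays had been made double-stranded by primer extension on fresh or once-stripped slides. Detection used fluorescent anti-GST, normalisation used masliner, and E-scores for ungapped eight-base words pooled with reverse complements came from the Universal PBM Analysis Suite.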

Row | Sequence | PBM E-score
1 | ACTCTGAT | -0.0861
2 | ACTGGCGC | -0.226
3 | CCCTTCTA | -0.289
4 | GGTTGCCA | -0.0145
5 | GCAGCGAC | -0.281
6 | CGCCAACG | -0.107
7 | ACAAGATA | 0.0181
8 | AGCCCCCG | -0.26
9 | GGACGGAA | 0.0838
10 | ACGTCCCA | -0.0797
11 | AGCTAGGC | -0.232
12 | CATGTCGC | -0.143
13 | GGTACGGA | 0.155
14 | AGGGTAGA | -0.238
15 | ACTGCGAA | -0.0614
16 | CTAAGCGA | -0.0956
17 | ATGACTAC | -0.0159
18 | GCTCCTAC | -0.0257
19 | GCGCAGCA | -0.232
20 | CCAGTAAG | -0.092
21 | ATCAAAAG | 0.118
22 | CTAATATA | 0.225

Row | Sequence | PBM E-score
23 | AAGACGCC | -0.162
24 | AGGCCAGG | -0.223
25 | CCTCAAAA | -0.029
26 | GCTTTACC | 0.225
27 | CTGTCAAG | -0.0992
28 | GGAACCCC | -0.0814
29 | CTGACAAG | 0.127
30 | GCCGTGCA | -0.19
31 | TAACTGGA | -0.0801
32 | GGCCTACC | -0.185
33 | CCTAGGTC | -0.183
34 | ATGAGTAC | 0.144
35 | CCTCGTAC | -0.0317
36 | AACTTTTA | 0.0977
37 | ATTGCCCC | -0.17
38 | CCAGGCCC | -0.281
39 | CCTACTAC | -0.0856
40 | ACATCACA | 0.0099
41 | AACTACTA | 0.257
42 | GCCGATTA | 0.106
43 | GCGTCAGA | -0.155
44 | AGAAACAG | -0.0583

Row | Sequence | PBM E-score
45 | CAGAGTGG | -0.258
46 | ACGTAGTG | -0.138
47 | GATTACCA | -0.164
48 | AAAGTAGT | -0.0125
49 | CATTAGGG | -0.139
50 | AGACGCCT | -0.193
51 | TCAATCGA | 0.0594
52 | ATCCCAAA | 0.085
53 | GTATCGCA | -0.0241
54 | GAATCACC | -0.05
55 | CGGGACCG | 0.188
56 | ACGGTGCC | -0.0952
57 | ACAAAGTC | 0.171
58 | CAGATATC | 0.0173
59 | AGTGTCAA | -0.0888
60 | ACTAGACT | -0.313
61 | CCCGCACG | -0.102
62 | ACCTAGGT | -0.151
63 | AGTGAAAA | 0.136
64 | CCGCTGAC | -0.0188
65 | CAGGTTTA | 0.0419
66 | AGCGATGA | -0.0374

Row | Sequence | PBM E-score
67 | TAAGACGA | -0.061
68 | ATGAGAAA | 0.18
69 | CGCAGTTA | -0.00781
70 | ACTGGTCT | -0.0362
71 | AATAAGCC | -0.179
72 | ATGAGCAT | 0.0799
73 | CCGCCTGA | -0.113
74 | AACCGACC | 0.025
75 | GAATAACC | 0.116
76 | CAACGCAG | -0.239
77 | ATGCTGAG | -0.294
78 | GCGCACCC | -0.173
79 | GCCTGAAA | 0.097
80 | ACACACGG | -0.0326
81 | GGGCGCCC | -0.191
82 | CGTCGGAG | 0.422
83 | CTAATGCA | 0.029
84 | ATAAACCG | -0.0374
85 | CACGTCTC | -0.0634
86 | GTAGCCGA | -0.286
